Source: the supplement of paper PMC10338343
± gives the standard deviation. Only a part is listed here, and it is no random draw.

System: MIWI (PIWIL1) piRISC loaded with L1MC piRNA (30 nt)
Experiment: pre-steady-state target cleavage rate (min^-1); MIWI and MILI are mouse PIWI proteins and EfPiwi is from a freshwater sponge; tags in brackets are library labels; higher = faster piRNA-guided slicing of the target
Details: guide: L1MC piRNA 5'p-UAACUAAAUACUAUGCAAGCUGUAGGUCCU; auxiliary factor: 500 nM mouse GTSF1
In short: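 The pre-steady-state cleavage rate was obtained by Cleave-'n-Seq with a burst-and-steady-state fit. A transcribed, DNA-blocked target RNA library (0.1 nM) was mixed with 1 nM active affinity-purified piRISC carrying one synthetic guide, with or without 500 nM GTSF1 partner protein, in HEPES–potassium acetate buffer at 33 °C for 0–8 or 0–960 min. Uncleaved targets were sequenced and normalised to depth and to weakly complementary targets, with three trials pooled and k3 capped at 0.0001 min^-1.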

First: UCCUGCUACAGCUUGCAUAGUAAAAAGUUA
Second: UCCUGGAUCAGCUUCGUUAGUAUUUAGUUA
The “pre-steady-state target cleavage rate” value of the first is higher: 0.362 ± 0.043 for the first, 0.00559 ± 0.0037 for the second.

Compared with UCCUGGUACACCAUGCAUAGUAUUUAGUUA, UCCUGGUACAGCUUGCAUCAGUAUUUAGUUA is lower in “pre-steady-state target cleavage rate” value: 0.235 ± 0.034 for the first, 0.0104 ± 0.0051 for the second.

Compared with AGGACCUACAGCUUGCUAUGUAUUUAGUAA, UCCUGCUACAGCAUGCAUAGUAUUUUCAAA is higher in “pre-steady-state target cleavage rate” value: 0.131 ± 0.026 for the first, 0.267 ± 0.074 for the second.

UCCUGGAUGAGCUUGCAUAGUAUAAUGAAA and UCCUGGAUGUGCUUGCAUUCUAUUUAGUUA are within error of each other in “pre-steady-state target cleavage rate” value: 0.0125 ± 0.0051 for the first, 0.00483 ± 0.0041 for the second.

UCGACCUACAGCUUGCAUAGAUUUUAGAAA and UCCACCUACAGCUUGCCAUAGUAUUUAGUUA are within error of each other in “pre-steady-state target cleavage rate” value: 0.214 ± 0.062 for the first, 0.243 ± 0.035 for the second.

Compared with UCCUGCUACAGCUUGCAUAGUAUUUAUUA, UCCUGGAUGAGCUUCCAUAGUAUUUACUUA is lower in “pre-steady-state target cleavage rate” value: 0.195 ± 0.023 for the first, 0.0116 ± 0.0069 for the second.

Going from UCCUGGAUGUGGUAGCAUAGUAUUUAGUUA to UCCUCCUAGAGCUUGCAUAGUAUUUACAAA, the “pre-steady-state target cleavage rate” value rises from 0.00879 ± 0.0039 to 0.23 ± 0.046.

First: UCCUGGUACAGCUUGCAUAGUAAUAAGUUA
Second: UCGUGGUACAGCUUGCAUAGUAUUUUCAAA
The “pre-steady-state target cleavage rate” value of the first is lower: 0.197 ± 0.031 for the first, 0.283 ± 0.043 for the second.

Going from UCCACCUACAGCUUCCAUUGUAUUUAGUUA to UCCUGGUACAGCUUGCAUUGUAUUUUCAAA, the “pre-steady-state target cleavage rate” value falls from 0.112 ± 0.019 to 0.0222 ± 0.01.

First: UCCUCCUACAGCUUGCAUAGUAAAUAGUAA
Second: UCCUGGUACACCUUGCAUAGUAUUUUCAAA
The “pre-steady-state target cleavage rate” value of the first is higher: 0.267 ± 0.045 for the first, 0.0614 ± 0.027 for the second.

Compared with UGCUCCUACAGCUUGCAUAGUAUUUUCAAA, UCCUGGUACAGCUUGCAUAGUAUUAUCUAA is lower in “pre-steady-state target cleavage rate” value: 0.263 ± 0.036 for the first, 0.149 ± 0.032 for the second.

UCCUGGAUGUCCAUGCAUAGUUUUUAGUUA and UCCUGGAUGUCGUUAGCAUAGUAUUUAGUUA are within error of each other in “pre-steady-state target cleavage rate” value: 0.00744 ± 0.0031 for the first, 0.0102 ± 0.0036 for the second.

Compared with UCCACCUACAGCUUGCAUAGUAAAAAGAAA, UCCUGGAUGUCGAACGUAUGUAUUUAUUUA is lower in “pre-steady-state target cleavage rate” value: 0.102 ± 0.028 for the first, less than 0.0001 for the second.

First: UCCACCUUGAGCUUGCAUAGUAUUUUCAAA
Second: UCCUGCUACAGCUUGCAUAGUAAUUUCAAA
The “pre-steady-state target cleavage rate” value of the first is lower: 0.0995 ± 0.02 for the first, 0.278 ± 0.074 for the second.

UCCUGGUACAGCUUGCAAUCUAUUUAGUAA and UCGACCUACAGCUACCAUAGUAUUUACAAA are within error of each other in “pre-steady-state target cleavage rate” value: 0.0223 ± 0.0096 for the first, 0.0302 ± 0.013 for the second.

Compared with UCCUGGAACAGCUUGCAGUAGUAUUUAGUUA, UCCUGGUACAGCAUGCAUAGUAUUUACAAA is higher in “pre-steady-state target cleavage rate” value: 0.00503 ± 0.0043 for the first, 0.291 ± 0.057 for the second.

UGGACCUAGUGCUUGCAUAGUAUUUUCAAA and UCCUGGAUGUCGUUGCAUAGUAUUUGGUUA are within error of each other in “pre-steady-state target cleavage rate” value: 0.0146 ± 0.0034 for the first, 0.0113 ± 0.0039 for the second.

Going from UCCUGGAUGUCGUUGCAUAGUAUAUACUUA to UCCACCUACAGCUUCCAUACUAUUUAGUUA, the “pre-steady-state target cleavage rate” value rises from less than 0.0001 to 0.0526 ± 0.02.

UCCUGCUACAGCUUGCAUAGUAAAAAGUAA and AGGACCUACAGCUUGCAUUCUAUUUAGAAA are within error of each other in “pre-steady-state target cleavage rate” value: 0.0998 ± 0.021 for the first, 0.15 ± 0.043 for the second.
